# Results as given in publication PMC9911399, “Two distinct binding modes provide the RNA-binding protein RbFox with extraordinary sequence specificity”.
# Residue numbers refer to the chain shown, from its start. The list shows a part of the results.
# T1: RBFOX1 RRM RbFoxmut (Fox-RRM*) (Homo sapiens, UniProt Q9NWB1 109-208, R118D;E147R;N151S;E152T)
# T1 sequence: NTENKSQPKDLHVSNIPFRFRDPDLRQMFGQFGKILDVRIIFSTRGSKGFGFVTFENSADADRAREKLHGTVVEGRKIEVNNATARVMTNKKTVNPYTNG
# B1: AUAACUU (DNA:RNA)
# RNA: GGGAGACCGGAAUUCAGAUUGUCCAUAACUUUUAAAUCCCGUCGUAGCCACCA
# DNA 1: CAATCTGAATTCCGGTCTCCC
# DNA 2: TGGTGGCTACGACGGGATT
# B2: CGGAGCC (DNA:RNA)
# RNA: B1 RNA with A25C, U26G, A27G, C29G, U30C, U31C
# DNA 1: CAATCTGAATTCCGGTCTCCC
# DNA 2: TGGTGGCTACGACGGGATT
# B3: AAAGACA (DNA:RNA)
# RNA: B1 RNA with U26A, A28G, C29A, U30C, U31A
# DNA 1: CAATCTGAATTCCGGTCTCCC
# DNA 2: TGGTGGCTACGACGGGATT
# B4: UCUAGCU (DNA:RNA)
# RNA: B1 RNA with A25U, U26C, A27U, C29G, U30C
# DNA 1: CAATCTGAATTCCGGTCTCCC
# DNA 2: TGGTGGCTACGACGGGATT
# B5: UCCUGAC (DNA:RNA)
# RNA: GGGAGACCGGAAUUCAGAUUGUCCUCCUGACUUAAAUCCCGUCGUAGCCACCA
# DNA 1: CAATCTGAATTCCGGTCTCCC
# DNA 2: TGGTGGCTACGACGGGATT
# B6: UAGCUGU (DNA:RNA)
# RNA: B1 RNA with A25U, U26A, A27G, A28C, C29U, U30G
# DNA 1: CAATCTGAATTCCGGTCTCCC
# DNA 2: TGGTGGCTACGACGGGATT
# B7: UCAUAAU (DNA:RNA)
# RNA: B5 RNA with C27A, G29A, C31U
# DNA 1: CAATCTGAATTCCGGTCTCCC
# DNA 2: TGGTGGCTACGACGGGATT
# B8: UGCCUAU (DNA:RNA)
# RNA: B5 RNA with C26G, U28C, G29U, C31U
# DNA 1: CAATCTGAATTCCGGTCTCCC
# DNA 2: TGGTGGCTACGACGGGATT
# B9: UGUCGAA (DNA:RNA)
# RNA: B5 RNA with C26G, C27U, U28C, C31A
# DNA 1: CAATCTGAATTCCGGTCTCCC
# DNA 2: TGGTGGCTACGACGGGATT
# B10: UCUCGGA (DNA:RNA)
# RNA: B5 RNA with C27U, U28C, A30G, C31A
# DNA 1: CAATCTGAATTCCGGTCTCCC
# DNA 2: TGGTGGCTACGACGGGATT
# B11: GGUGGGA (DNA:RNA)
# RNA: B5 RNA with U25G, C26G, C27U, U28G, A30G, C31A
# DNA 1: CAATCTGAATTCCGGTCTCCC
# DNA 2: TGGTGGCTACGACGGGATT
# B12: UCGAUUC (DNA:RNA)
# RNA: B5 RNA with C27G, U28A, G29U, A30U
# DNA 1: CAATCTGAATTCCGGTCTCCC
# DNA 2: TGGTGGCTACGACGGGATT
# B13: CCCCCCC (DNA:RNA)
# RNA: B5 RNA with U25C, U28C, G29C, A30C
# DNA 1: CAATCTGAATTCCGGTCTCCC
# DNA 2: TGGTGGCTACGACGGGATT
# B14: UCUCUCA (DNA:RNA)
# RNA: B5 RNA with C27U, U28C, G29U, A30C, C31A
# DNA 1: CAATCTGAATTCCGGTCTCCC
# DNA 2: TGGTGGCTACGACGGGATT
# B15: GUUGAAG (DNA:RNA)
# RNA: B1 RNA with A25G, A27U, A28G, C29A, U30A, U31G
# DNA 1: CAATCTGAATTCCGGTCTCCC
# DNA 2: TGGTGGCTACGACGGGATT
# B16: GGCAUCA (DNA:RNA)
# RNA: B1 RNA with A25G, U26G, A27C, C29U, U30C, U31A
# DNA 1: CAATCTGAATTCCGGTCTCCC
# DNA 2: TGGTGGCTACGACGGGATT
# B17: CAUCCUG (DNA:RNA)
# RNA: B1 RNA with A25C, U26A, A27U, A28C, U31G
# DNA 1: CAATCTGAATTCCGGTCTCCC
# DNA 2: TGGTGGCTACGACGGGATT
# B18: CUCCUUC (DNA:RNA)
# RNA: B1 RNA with A25C, A27C, A28C, C29U, U31C
# DNA 1: CAATCTGAATTCCGGTCTCCC
# DNA 2: TGGTGGCTACGACGGGATT
# B19: GUCGCAG (DNA:RNA)
# RNA: B1 RNA with A25G, A27C, A28G, U30A, U31G
# DNA 1: CAATCTGAATTCCGGTCTCCC
# DNA 2: TGGTGGCTACGACGGGATT
# B20: GGGUAAG (DNA:RNA)
# RNA: B5 RNA with U25G, C26G, C27G, G29A, C31G
# DNA 1: CAATCTGAATTCCGGTCTCCC
# DNA 2: TGGTGGCTACGACGGGATT
# B21: UCGACAG (DNA:RNA)
# RNA: B5 RNA with C27G, U28A, G29C, C31G
# DNA 1: CAATCTGAATTCCGGTCTCCC
# DNA 2: TGGTGGCTACGACGGGATT
# B22: AGUGAUA (DNA:RNA)
# RNA: B1 RNA with U26G, A27U, A28G, C29A, U31A
# DNA 1: CAATCTGAATTCCGGTCTCCC
# DNA 2: TGGTGGCTACGACGGGATT
# B23: CUUGCGC (DNA:RNA)
# RNA: B1 RNA with A25C, A27U, A28G, U30G, U31C
# DNA 1: CAATCTGAATTCCGGTCTCCC
# DNA 2: TGGTGGCTACGACGGGATT
# B24: UGUUGAA (DNA:RNA)
# RNA: B5 RNA with C26G, C27U, C31A
# DNA 1: CAATCTGAATTCCGGTCTCCC
# DNA 2: TGGTGGCTACGACGGGATT
# B25: UUUCGGC (DNA:RNA)
# RNA: B5 RNA with C26U, C27U, U28C, A30G
# DNA 1: CAATCTGAATTCCGGTCTCCC
# DNA 2: TGGTGGCTACGACGGGATT
# B26: GGUAUCU (DNA:RNA)
# RNA: B1 RNA with A25G, U26G, A27U, C29U, U30C
# DNA 1: CAATCTGAATTCCGGTCTCCC
# DNA 2: TGGTGGCTACGACGGGATT
# B27: GUUUCAC (DNA:RNA)
# RNA: B5 RNA with U25G, C26U, C27U, G29C
# DNA 1: CAATCTGAATTCCGGTCTCCC
# DNA 2: TGGTGGCTACGACGGGATT
# B28: CCACUUU (DNA:RNA)
# RNA: B1 RNA with A25C, U26C, A28C, C29U
# DNA 1: CAATCTGAATTCCGGTCTCCC
# DNA 2: TGGTGGCTACGACGGGATT
# B29: AAGGGCG (DNA:RNA)
# RNA: B1 RNA with U26A, A27G, A28G, C29G, U30C, U31G
# DNA 1: CAATCTGAATTCCGGTCTCCC
# DNA 2: TGGTGGCTACGACGGGATT
# B30: AUCCCCC (DNA:RNA)
# RNA: B1 RNA with A27C, A28C, U30C, U31C
# DNA 1: CAATCTGAATTCCGGTCTCCC
# DNA 2: TGGTGGCTACGACGGGATT
# B31: CCGUCGG (DNA:RNA)
# RNA: B5 RNA with U25C, C27G, G29C, A30G, C31G
# DNA 1: CAATCTGAATTCCGGTCTCCC
# DNA 2: TGGTGGCTACGACGGGATT
# Molecular target: T1, RBFOX1 RRM RbFoxmut (Fox-RRM*)
# Assay: EMSA; HiTS-Eq, 1 nM pool, 10 min; buffer printed only for the single-RNA assays: 10 mM Tris pH 7.5, 150 mM NaCl, 3.4 mM EDTA, 0.001% NP-40, 30 C
# Conditions: tags: His6 N-terminal (pET28a); label: 5' 32P
# Summary of the method: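 These values rest on relative association constants, computed from read-count changes of each RNA species versus the control reaction and normalised to the cognate motif. Reads came from free RNA recovered by 8% native PAGE after purified RbFox RRM (wild type or mutant) at increasing concentrations was equilibrated for 10 min in 50 µL with 1 nM of a 5′-radiolabelled pool with 7 randomized nucleotides and DNA-annealed flanks.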
row,Binder,binding signal
1,B1,0.103 KA relative to UGCAUGU
2,B2,0.159 KA relative to UGCAUGU
3,B3,0.0717 KA relative to UGCAUGU
4,B4,0.0854 KA relative to UGCAUGU
5,B5,0.123 KA relative to UGCAUGU
6,B6,0.133 KA relative to UGCAUGU
7,B7,0.103 KA relative to UGCAUGU
8,B8,0.0874 KA relative to UGCAUGU
9,B9,0.103 KA relative to UGCAUGU
10,B10,0.0758 KA relative to UGCAUGU
11,B11,0.0667 KA relative to UGCAUGU
12,B12,0.115 KA relative to UGCAUGU
13,B13,0.0938 KA relative to UGCAUGU
14,B14,0.101 KA relative to UGCAUGU
15,B15,0.104 KA relative to UGCAUGU
16,B16,0.329 KA relative to UGCAUGU

row,Binder,binding signal
1,B17,0.102 KA relative to UGCAUGU
2,B18,0.0516 KA relative to UGCAUGU
3,B19,0.104 KA relative to UGCAUGU
4,B20,0.116 KA relative to UGCAUGU
5,B21,0.0676 KA relative to UGCAUGU
6,B22,0.133 KA relative to UGCAUGU
7,B23,0.107 KA relative to UGCAUGU
8,B24,0.131 KA relative to UGCAUGU
9,B25,0.104 KA relative to UGCAUGU
10,B26,0.206 KA relative to UGCAUGU
11,B27,0.12 KA relative to UGCAUGU
12,B28,0.0912 KA relative to UGCAUGU
13,B29,0.0948 KA relative to UGCAUGU
14,B30,0.0511 KA relative to UGCAUGU
15,B31,0.0701 KA relative to UGCAUGU
